# According to the supplement of paper PMC3334620:
# In all, about 33,000 sequences were measured (“E-score (-0.5 to 0.5)”: median about -0.056, highest 2% from about 0.38 on). The list shows a part of the results.
# Target: Stb4 (UniProt P50104)
# Test: PBM E-score (8-mer binding enrichment) (E-score (-0.5 to 0.5)); higher = stronger / more preferred TF binding; most listed sequences are background and not binding sites
# Details: protein concentration: 200 nM; construct: GST-DNA-binding domain
# Procedure: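 Universal 'all 10-mer' protein binding microarrays (Agilent AMADID 015681) probed with GST-tagged S. cerevisiae TFs (full-length or DBD) made by in vitro transcription/translation (PURExpress), about 100-200 nM. Bound TF was detected with fluorescent anti-GST. Each ungapped 8-mer (which stands for itself and its reverse complement) is scored by the PBM enrichment score (E-score), a modified Wilcoxon-Mann-Whitney statistic from -0.5 to +0.5, computed with the Universal PBM Analysis Suite. Scale: above 0.35 generally sequence-specific binding.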
row,Sequence,PBM E-score
1,AATATAGA,-0.0363
2,CACCCATG,-0.151
3,CACTACTA,-0.0321
4,ATTCGCAA,-0.069
5,AAAGGCAA,-0.188
6,GGGGTCTA,0.048
7,GTATCCCA,-0.0937
8,AACCGAGT,0.305
9,CAAAGCTG,-0.0644
10,AAGGTTAT,0.049
11,CCTGCGTA,-0.0594
12,AACTGTTA,-0.038
13,AGTAGTAC,-0.028
14,CAATAAGC,-0.128
15,GGCATACC,0.0586
16,ATATGAGC,-0.115
17,AGTGCGTG,-0.0522
18,GCATCGCC,0.00305
19,GACCGAAC,0.286
20,ATGAGACA,-0.117
21,GGCAAAGA,0.0407
22,GAGTGGCC,-0.0643
23,AATGGTTC,-0.0491
24,ACACGTCG,0.046
25,ACGCCTGA,-0.231

row,Sequence,PBM E-score
1,GTGACTTA,-0.169
2,CATTTGGC,-0.0228
3,AAGGTAAG,-0.142
4,TATGCGCA,-0.105
5,ATGACTTC,-0.0339
6,GACGGCAA,0.24
7,CGCAAGCC,-0.0679
8,ACTTTCCT,-0.22
9,CGTCGAGC,-0.0924
10,TAACCCAA,-0.116
11,TCATGGCA,-0.0593
12,AGTAAGGA,-0.105
13,CCCAATTC,-0.0232
14,GGCAGGGA,-0.0459
15,CAATCGCG,-0.0263
16,ACGCGACC,-0.0646
17,GCGAACGC,-0.0479
18,CAGCTTGC,-0.146
19,CTAGCAGC,-0.238
20,CACTGTTC,-0.0206
21,TAAGTTCA,-0.0313
22,AGTTCGGG,0.426
23,GCATCGTA,-0.026
24,GCAGTCTA,-0.226
25,GAAATTAC,0.0977

row,Sequence,PBM E-score
1,GCAGCTAA,-0.185
2,CGCAGTAA,-0.0226
3,ATCTGCAG,-0.0776
4,AAAAGTAC,-0.0396
5,GGTTAGTA,0.154
6,ACTAGTTC,-0.0341
7,ACCCCTTG,-0.27
8,CCAGATTA,-0.00871
9,ATGTTACA,-0.0716
10,ATATACAG,-0.0645
11,ATTTCCTA,-0.012
12,TCAGCAAA,-0.0931
13,ATCCGTCA,0.28
14,AAGTTTCT,-0.242
15,ACGGGCGG,0.159
16,GAGAGCGC,0.0595
17,CGCGACCG,0.0849
18,CAAGCCGG,0.216
19,TCGACTCA,-0.158
20,ACGCCTAT,-0.142
21,AAGCTTTC,0.113
22,GTTGTTAA,-0.0452
23,GCTATAAA,0.0582
24,CTTAGCAC,0.0582
25,TATGGAGA,-0.223

row,Sequence,PBM E-score
1,CCTGAATC,-0.0486
2,GAATGATC,0.0811
3,CGTTCGTA,-0.0524
4,ACGTACCG,0.158
5,AGGTACCT,-0.215
6,CGTAAGAG,-0.0499
7,GCTAAGAA,0.0449
8,ACCATACA,0.0548
9,AGCATCGG,0.292
10,CGTTAGCA,-0.0245
11,GGTTTCCA,-0.164
12,GACGAAAA,0.0557
13,AGCCGGCT,0.238
14,CTTAGCCC,-0.0241
15,AGGATCTG,-0.198
16,AGTTAGTA,-0.0847
17,ACTGCTAC,-0.19
18,ATCCTTAC,-0.0109
19,ATAGATGA,-0.0532
20,CAGAGCCA,-0.247
21,CGGGCAAA,0.197
22,AGGCTTTA,-0.149
23,ACACGGAA,0.338
24,AACCTACG,-0.064
25,CAATATGG,-0.189

row,Sequence,PBM E-score
1,CTCGACAA,-0.243
2,GTTTTGGA,-0.0981
3,ACCCGTGG,0.192
4,ATCGATAA,0.0115
5,AGCGTGGG,-0.158
6,AATTAGCC,0.225
7,AGATTATG,0.0822
8,CCATCCCC,0.0182
9,ACATCATA,-0.207
10,CACATGCG,-0.0206
11,CTCTTAGA,-0.148
12,AGAAAAAC,0.0789
13,TCGTCACA,-0.142
14,ATTACGAG,-0.0498
15,CCGGTCCC,0.282
16,GTGAGCCA,-0.259
17,CAATGGAA,-0.00985
18,ATAAATAA,0.096
19,ATAAGTAA,0.0286
20,CCTCTTCA,-0.228
21,CCGTGAAA,0.145
22,CTTTACTA,0.0402
23,CGGGATCC,0.362
24,ACGGTTTG,0.0503
25,AACTTGCA,-0.142

row,Sequence,PBM E-score
1,GCCCCTGA,-0.151
2,CCACTTTC,0.0186
3,AATCACCA,-0.0406
4,ACAGGCCC,-0.1
5,AACTAAAT,-0.115
6,GTAACGAC,-0.0977
7,CATTCTTC,-0.0802
8,TACCAAAA,-0.12
9,AGATACGA,-0.0774
10,ATGGGCTG,-0.291
11,CACTAGCA,-0.366
12,CGAATGGC,0.0616
13,TCGGCCAA,0.154
14,CAGGGACG,-0.237
15,TCGTGCCA,-0.287
16,TAGCTCCA,-0.13
17,CGAACCGA,0.397
18,AGTGGCGG,0.0057
19,CAGCCCAA,-0.0393
20,GGCCACGA,0.032
21,CCCACTGC,-0.119
22,CGGATAGC,0.394
23,TCGCCCGA,0.185
24,GATTTGAA,-0.0567
25,CCGTCAAA,0.0747

row,Sequence,PBM E-score
1,GAGAGCCC,-0.189
2,ACAGTCTG,-0.101
3,GAGCCAGA,-0.0624
4,GTGGAGGA,-0.111
5,CTGACTGC,-0.159
6,GGAAATTA,0.206
7,AGCTGGTA,-0.177
8,CTCAGTCA,-0.283
9,GACACGCC,0.215
10,TACTCAGA,-0.0115
11,ACATCGAT,-0.034
12,ATTAGAGC,-0.123
13,ACTAAGGA,-0.111
14,CTCGCGAA,-0.186
15,GCCTGATA,-0.232
16,AAAGGAAG,0.0446
17,GTACCTCA,-0.189
18,CTAGGCAC,-0.144
19,AACTCGCT,0.00937
20,TACGATAA,-0.162
21,CAAATTTC,-0.0668
22,AGCTCGCA,-0.108
